Reference: US9433687B2, “Anti-Notch3 antibodies and antibody-drug conjugates” (Pfizer Inc., priority 2012, dated 2016)
“And” between values parts separate entries of the source, which are not always exact repeats. Equal entries are not always repeated.

Legend:
MDA-MB-468/hNotch3 = molecular target: T1, MDA-MB-468/hNotch3 (Homo sapiens, UniProt Q9UM47); test: In vitro cytotoxicity (MTS), MDA-MB-468/hNotch3; format: cell-based; conditions: Table 14; two individual repeats; LP = lacked potency
T1 construct: cell lines engineered to over-express full length human Notch3 protein: MDA-MB-468/hNotch3 and U2OS/hNotch3; expressed in transfected cells; host or cells: MDA-MB-468
T1 sequence (Q9UM47 40-2321): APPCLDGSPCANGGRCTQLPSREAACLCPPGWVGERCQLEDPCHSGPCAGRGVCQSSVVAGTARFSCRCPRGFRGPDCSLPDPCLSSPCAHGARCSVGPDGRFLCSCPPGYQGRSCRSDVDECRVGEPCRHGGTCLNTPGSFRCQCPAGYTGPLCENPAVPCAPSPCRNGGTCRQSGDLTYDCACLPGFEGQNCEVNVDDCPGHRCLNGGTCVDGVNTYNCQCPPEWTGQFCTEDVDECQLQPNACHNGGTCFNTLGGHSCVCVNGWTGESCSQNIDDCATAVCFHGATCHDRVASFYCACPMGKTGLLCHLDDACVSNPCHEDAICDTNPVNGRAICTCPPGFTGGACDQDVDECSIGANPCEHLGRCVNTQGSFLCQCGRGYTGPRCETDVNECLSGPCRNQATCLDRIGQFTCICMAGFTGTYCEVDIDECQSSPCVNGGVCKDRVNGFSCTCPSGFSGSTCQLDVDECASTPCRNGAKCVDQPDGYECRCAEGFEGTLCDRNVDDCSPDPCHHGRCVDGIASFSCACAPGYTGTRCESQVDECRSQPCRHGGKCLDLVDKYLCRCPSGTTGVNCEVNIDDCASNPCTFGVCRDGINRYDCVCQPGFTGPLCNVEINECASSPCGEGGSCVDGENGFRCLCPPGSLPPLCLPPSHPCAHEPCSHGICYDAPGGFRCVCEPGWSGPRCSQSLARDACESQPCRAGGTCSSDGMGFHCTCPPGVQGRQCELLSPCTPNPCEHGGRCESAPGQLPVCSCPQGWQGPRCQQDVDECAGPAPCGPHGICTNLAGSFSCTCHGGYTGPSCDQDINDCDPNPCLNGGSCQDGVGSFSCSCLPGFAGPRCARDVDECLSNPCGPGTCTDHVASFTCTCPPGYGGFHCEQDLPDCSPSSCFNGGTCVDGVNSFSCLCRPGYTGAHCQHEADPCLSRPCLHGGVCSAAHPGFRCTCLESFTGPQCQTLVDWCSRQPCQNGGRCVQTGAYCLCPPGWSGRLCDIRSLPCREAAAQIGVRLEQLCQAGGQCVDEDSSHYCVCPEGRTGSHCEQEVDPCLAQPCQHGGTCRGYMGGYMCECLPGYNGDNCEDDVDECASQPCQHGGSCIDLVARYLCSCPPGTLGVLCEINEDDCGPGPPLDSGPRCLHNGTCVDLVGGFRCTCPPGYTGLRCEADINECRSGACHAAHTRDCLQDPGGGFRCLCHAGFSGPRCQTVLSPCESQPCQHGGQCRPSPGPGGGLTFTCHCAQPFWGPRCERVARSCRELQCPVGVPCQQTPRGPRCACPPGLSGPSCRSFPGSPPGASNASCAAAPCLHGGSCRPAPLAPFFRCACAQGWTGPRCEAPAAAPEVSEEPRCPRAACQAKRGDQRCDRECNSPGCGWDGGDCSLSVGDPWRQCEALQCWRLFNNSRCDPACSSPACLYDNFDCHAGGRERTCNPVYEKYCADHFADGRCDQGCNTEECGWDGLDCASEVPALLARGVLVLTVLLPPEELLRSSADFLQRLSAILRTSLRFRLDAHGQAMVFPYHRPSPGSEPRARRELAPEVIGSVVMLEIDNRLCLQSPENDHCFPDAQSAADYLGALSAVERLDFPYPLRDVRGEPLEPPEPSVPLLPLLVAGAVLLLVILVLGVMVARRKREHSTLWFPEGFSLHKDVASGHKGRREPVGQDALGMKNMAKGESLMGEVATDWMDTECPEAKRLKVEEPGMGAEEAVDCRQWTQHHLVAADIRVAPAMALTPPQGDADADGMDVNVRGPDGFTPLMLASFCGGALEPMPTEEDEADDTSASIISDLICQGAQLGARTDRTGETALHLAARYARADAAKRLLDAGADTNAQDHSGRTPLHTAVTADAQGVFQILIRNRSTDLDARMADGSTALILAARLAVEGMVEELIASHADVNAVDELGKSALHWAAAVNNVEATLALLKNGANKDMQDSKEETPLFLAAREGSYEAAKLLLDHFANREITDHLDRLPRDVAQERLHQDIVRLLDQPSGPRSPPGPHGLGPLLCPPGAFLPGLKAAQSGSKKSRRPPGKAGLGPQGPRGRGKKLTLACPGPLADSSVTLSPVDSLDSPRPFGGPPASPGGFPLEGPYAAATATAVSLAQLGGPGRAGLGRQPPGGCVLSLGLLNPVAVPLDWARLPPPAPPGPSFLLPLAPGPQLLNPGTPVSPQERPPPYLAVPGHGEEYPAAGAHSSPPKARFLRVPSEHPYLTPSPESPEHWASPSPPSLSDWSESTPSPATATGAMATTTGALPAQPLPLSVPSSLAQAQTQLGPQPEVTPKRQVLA
Procedure: The effects of anti-Notch3 ADCs were assessed on 1) cell lines endogenously expressing Notch3 protein: HCC2429 (lung cancer), OVCAR3 (ovarian cancer) and MDA-MB-468 (breast cancer), 2) cell lines engineered to over-express full length human Notch3 protein: MDA-MB-468/hNotch3 and U2OS/hNotch3, and 3) a negative control cell line (SW900) using an MTS cellular viability indicator (Promega, Madison, Wis.). These cell lines were cultured with increasing concentrations of anti-Notch3 ADCs comprising rat-human chimeric anti-Notch3 antibodies, ch28 and ch75, and humanized anti-Notch3 antibodies, hu28 and hu75, conjugated to various linker-payload combinations of the present invention. As a specificity control for the anti-Notch3-ADCs, non-targeted control-ADCs (huNeg8.8-ADCs or ch2H6-ADCs) were also tested on the same cell lines. After four days, viability of each culture was assessed. IC50 values were calculated by logistic non-linear regression, model #203 with XL fit v4.2 (IDBS, Guildford, Surry, UK) and presented as ng Ab/mL. The drug antibody ratio (DAR) is also provided.

HCC2429 = molecular target: T2, HCC2429 (Homo sapiens, UniProt Q9UM47); test: Cytotoxicity (MTS) after control or Notch3 siRNA, HCC2429; format: cell-based; conditions: 96 hours, LP = lacked potency
T2 construct: endogenous Notch3 expressing cell lines, HCC2429 and MDA-MB-468; endogenous in cells; host or cells: HCC2429
T2 sequence (Q9UM47 40-2321): as above
Procedure: Notch3 knockdown with siRNAs was used to confirm that the in vitro cytotoxicity of anti-Notch3 ADCs was dependent on the expression of the Notch3 protein. siRNA transfections were generated using ON-TARGET plus SMART pool human Notch3 (L-011093-00), ON-TARGET plus Control Non-Targeting pool (D-001810-10) (Thermo Scientific Dharmacon) and Lipofectamine RNAiMAX Reagent (Invitrogen). Two to 2.5×10^6 cells of HCC2429, OVCAR3 and MDA-MB-468/hNotch3 cells were plated in 10 cm dishes in growth medium without antibiotics the day before transfection. The next day fresh medium without antibiotics was added. The siRNAs and the Lipofectamine RNAiMAX were diluted in OPTI-MEM media and used as per the manufacturer's specifications. Each of the cell lines was transfected with control and Notch3 siRNAs. The cells were incubated with the transfection mixture for 24 hours in a humidified, 37° C., 5% CO2 incubator. After 24 hours, cells were trypsinized and plated for assessment using MTS cellular viability indicator (Promega, Madison, Wis.).
Depending on the cell line, cells were then seeded at a density of 2,500 to 5,000 cells per well 24 hours before treatment. Cells were treated with 3-fold serially diluted humanized anti-Notch3 ADCs in triplicates at 10 concentrations (range 0-30 μg Ab/ml). […] For experiments with 2 individual repeats, average IC50 values were calculated along with standard error of the mean (S.E.M.). Western blot analysis on extracts prepared from control and Notch3 siRNA-treated cells was performed to confirm that Notch3 knockdown occurred for up to 144 hours (data not shown). Cell lines that expressed Notch3 (herein termed control siRNA) or had reduced Notch3 expression after siRNA knockdown (herein termed Notch3 siRNA) were cultured with increasing concentrations of humanized anti Notch3 ADCs. As a specificity control for the anti-Notch3 ADCs, non-targeted control-ADCs (huNeg8.8-ADCs) were also tested on the same cell lines. After four days, viability of each culture was assessed. IC50 values were calculated by logistic non-linear regression, model #203 with XL fit v4.2 (IDBS, Guildford, Surry, UK) and presented as ng Ab/mL. The drug antibody ratio (DAR) is also provided.

N87 gastric xenografts = test: N87 gastric xenograft model; format: in vivo, mouse; conditions: Table 27 study
Procedure: Similar in vivo experiments were performed with the N87 gastric cancer cell line as described above. To generate xenografts, nude (Nu/Nu) female mice were implanted subcutaneously with 8×10^6 N87 cells in 50% Matrigel (BD Biosciences).
The N87 gastric model was also dosed intravenously Q4d×4 with PBS vehicle, rat-human chimeric anti-Notch3 ADCs and control huNeg-8.8 ADCs, at a dose of 5 mg/kg as provided in FIG. 16D.
The N87 gastric model was also dosed intravenously Q4d×4 with PBS vehicle and rat-human chimeric anti-Notch3 ADCs ch28-mc0131, ch75-mc0131, ch28-m(H2O)c-0131 and ch75-m(H2O)c-0131 at a dose of 5 mg/kg as provided in FIG. 16E.

B1: hu28-vc6780 (conjugate)
heavy: EVQLVESGGGLVQPGGSLRLSCAASGFTFRDYGMTWVRQAPGKGLEWVAYISSGSNYIYYAEAVKGRFTISRDNAKNSLYLQMNSLRAEDTAVYYCARRGPFVLDAWGQGTLVTVSS[letters of human IgG1 constant region omitted]
light: DIQMTQSPSSLSASVGDRVTITCKASQSINRYLHWYQQKPGKAPKLLIYNANGLQTGVPSRFSGSGSGTDFTLTISSLQPEDFATYYCLQHNTWPDTFGGGTKVEIKRTVAAPSVFIFPPSDEQLKSGTASVVCLLNNFYPREAKVQWKVDNALQSGNSQESVTEQDSKDSTYSLSSTLTLSKADYEKHKVYACEVTHQGLSSPVTKSFNRGEC
For B1, the “IC50 (ng Ab/mL), MDA-MB-468/hNotch3” value (MDA-MB-468/hNotch3) was 1.3 ng Ab/mL and 3 ng Ab/mL, the “IC50 (ng Ab/mL) ± S.E.M., HCC2429 Control siRNA” value (HCC2429; Control siRNA) was 259 ± 179 ng Ab/mL and the “IC50 (ng Ab/mL) ± S.E.M., HCC2429 Notch3 siRNA” value (HCC2429; Notch3 siRNA knockdown) was 14120 ± 1175 ng Ab/mL. The tumor volume (N87 gastric xenografts; DAY 4, dose 1 mg/kg intravenously Q4d×4) was 560 mm^3, the tumor volume (N87 gastric xenografts; DAY 4, dose 3 mg/kg intravenously Q4d×4) was 552 mm^3 and the tumor volume (N87 gastric xenografts; DAY 4, dose 10 mg/kg intravenously Q4d×4) was 434 mm^3. It also gave a tumor volume (N87 gastric xenografts; DAY 8, dose 1 mg/kg intravenously Q4d×4) of 592 mm^3, a tumor volume (N87 gastric xenografts; DAY 8, dose 3 mg/kg intravenously Q4d×4) of 545 mm^3 and a tumor volume (N87 gastric xenografts; DAY 8, dose 10 mg/kg intravenously Q4d×4) of 379 mm^3. It also gave a tumor volume (N87 gastric xenografts; DAY 11, dose 1 mg/kg intravenously Q4d×4) of 617 mm^3, a tumor volume (N87 gastric xenografts; DAY 11, dose 3 mg/kg intravenously Q4d×4) of 511 mm^3 and a tumor volume (N87 gastric xenografts; DAY 11, dose 10 mg/kg intravenously Q4d×4) of 315 mm^3. For the same molecule, the tumor volume (N87 gastric xenografts; DAY 14, dose 1 mg/kg intravenously Q4d×4) was 782 mm^3, the tumor volume (N87 gastric xenografts; DAY 14, dose 3 mg/kg intravenously Q4d×4) was 564 mm^3 and the tumor volume (N87 gastric xenografts; DAY 14, dose 10 mg/kg intravenously Q4d×4) was 292 mm^3. The tumor volume (N87 gastric xenografts; DAY 18, dose 1 mg/kg intravenously Q4d×4) was 797 mm^3, the tumor volume (N87 gastric xenografts; DAY 18, dose 3 mg/kg intravenously Q4d×4) was 479 mm^3 and the tumor volume (N87 gastric xenografts; DAY 18, dose 10 mg/kg intravenously Q4d×4) was 199 mm^3. It also gave a tumor volume (N87 gastric xenografts; DAY 21, dose 1 mg/kg intravenously Q4d×4) of 839 mm^3, a tumor volume (N87 gastric xenografts; DAY 21, dose 3 mg/kg intravenously Q4d×4) of 499 mm^3 and a tumor volume (N87 gastric xenografts; DAY 21, dose 10 mg/kg intravenously Q4d×4) of 194 mm^3. For the same molecule, the tumor volume (N87 gastric xenografts; DAY 25, dose 1 mg/kg intravenously Q4d×4) was 878 mm^3, the tumor volume (N87 gastric xenografts; DAY 25, dose 3 mg/kg intravenously Q4d×4) was 588 mm^3 and the tumor volume (N87 gastric xenografts; DAY 25, dose 10 mg/kg intravenously Q4d×4) was 181 mm^3. The tumor volume (N87 gastric xenografts; DAY 28, dose 1 mg/kg intravenously Q4d×4) was 904 mm^3, the tumor volume (N87 gastric xenografts; DAY 28, dose 3 mg/kg intravenously Q4d×4) was 672 mm^3 and the tumor volume (N87 gastric xenografts; DAY 28, dose 10 mg/kg intravenously Q4d×4) was 204 mm^3. It also gave a tumor volume (N87 gastric xenografts; DAY 33, dose 1 mg/kg intravenously Q4d×4) of 1043 mm^3, a tumor volume (N87 gastric xenografts; DAY 33, dose 3 mg/kg intravenously Q4d×4) of 786 mm^3 and a tumor volume (N87 gastric xenografts; DAY 33, dose 10 mg/kg intravenously Q4d×4) of 196 mm^3. The tumor volume (N87 gastric xenografts; DAY 36, dose 1 mg/kg intravenously Q4d×4) was 1108 mm^3, the tumor volume (N87 gastric xenografts; DAY 36, dose 3 mg/kg intravenously Q4d×4) was 827 mm^3 and the tumor volume (N87 gastric xenografts; DAY 36, dose 10 mg/kg intravenously Q4d×4) was 189 mm^3.
